# Laboratory results published in the supplement of paper PMC8728848.
# The other results are listed elsewhere or left out.
# Assays:
# Test in all cases: glycan array binding signal (z-score within array); higher = stronger binding
# Conditions in all cases: glycan notation: IUPAC condensed, linker removed
# [1] = biological target: Gal(b1-3)GlcNAc(b1-6)[Gal(b1-3)]GalNAc
# How it was run: (§1)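 The binding signal is a Z-score computed within each array. Data were drawn from 3228 arrays in the Consortium for Functional Glycomics database, restricted to those with a known protein sequence. Scores were averaged over arrays of the same protein sequence at different concentrations or buffers, and over linkers, and negative values can be taken as non-binding.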
# Gal(b1-3)GlcNAc6S = biological target: Gal(b1-3)GlcNAc6S
# How it was run: as §1
# [2] = biological target: Gal(b1-3)[Fuc(a1-4)]GlcNAc
# How it was run: as §1
# [3] = biological target: Gal(b1-3)[Fuc(a1-4)]GlcNAc(b1-2)Man
# How it was run: as §1
# [4] = biological target: Gal(b1-3)[Fuc(a1-4)]GlcNAc(b1-2)Man(a1-3)[Gal(b1-3)[Fuc(a1-4)]GlcNAc(b1-2)Man(a1-6)]Man(b1-4)GlcNAc(b1-4)[Fuc(a1-6)]GlcNAc
# How it was run: as §1
# [5] = biological target: Gal(b1-3)[Fuc(a1-4)]GlcNAc(b1-3)Gal(b1-3)[Fuc(a1-4)]GlcNAc
# How it was run: as §1
# [6] = biological target: Gal(b1-3)[Fuc(a1-4)]GlcNAc(b1-3)Gal(b1-4)[Fuc(a1-3)]GlcNAc
# How it was run: as §1
# [7] = biological target: Gal(b1-3)[Fuc(a1-4)]GlcNAc(b1-6)GalNAc
# How it was run: as §1
# [8] = biological target: Gal(b1-3)[GlcNAc(b1-6)]GalNAc
# How it was run: as §1
# [9] = biological target: Gal(b1-3)[Neu5Ac(a2-6)]GalNAc
# How it was run: as §1
# [10] = biological target: Gal(b1-3)[Neu5Ac(a2-6)]GlcNAc(b1-4)Gal(b1-4)Glc
# How it was run: as §1
# [11] = biological target: Gal(b1-3)[Neu5Ac(b2-6)]GalNAc
# How it was run: as §1
# Gal(b1-4)Gal = biological target: Gal(b1-4)Gal
# How it was run: as §1
# [12] = biological target: Gal(b1-4)GalNAc(a1-3)[Fuc(a1-2)]Gal(b1-4)GlcNAc
# How it was run: as §1
# [13] = biological target: Gal(b1-4)GalNAc(b1-3)[Fuc(a1-2)]Gal(b1-4)GlcNAc
# How it was run: as §1
# Gal(b1-4)Glc = biological target: Gal(b1-4)Glc
# How it was run: as §1
# Gal(b1-4)Glc6S = biological target: Gal(b1-4)Glc6S
# How it was run: as §1
# Gal(b1-4)GlcNAc = biological target: Gal(b1-4)GlcNAc
# How it was run: as §1
# [14] = biological target: Gal(b1-4)GlcNAc(a1-6)Gal(b1-4)GlcNAc
# How it was run: as §1
# Gal(b1-4)GlcNAc(b1-2)Man = biological target: Gal(b1-4)GlcNAc(b1-2)Man
# How it was run: as §1
# [15] = biological target: Gal(b1-4)GlcNAc(b1-2)Man(a1-3)Man(b1-4)GlcNAc(b1-4)GlcNAc
# How it was run: as §1
# [16] = biological target: Gal(b1-4)GlcNAc(b1-2)Man(a1-3)[Gal(b1-4)GlcNAc(b1-2)Man(a1-6)]Man(b1-4)GlcNAc(b1-4)GlcNAc
# How it was run: as §1
# [17] = biological target: Gal(b1-4)GlcNAc(b1-2)Man(a1-3)[Gal(b1-4)GlcNAc(b1-2)Man(a1-6)]Man(b1-4)GlcNAc(b1-4)[Fuc(a1-6)]GlcNAc
# How it was run: as §1
# [18] = biological target: Gal(b1-4)GlcNAc(b1-2)Man(a1-3)[Gal(b1-4)GlcNAc(b1-2)Man(a1-6)][Gal(b1-4)GlcNAc(b1-4)]Man(b1-4)GlcNAc(b1-4)[Fuc(a1-6)]GlcNAc
# How it was run: as §1
# [19] = biological target: Gal(b1-4)GlcNAc(b1-2)Man(a1-3)[Gal(b1-4)GlcNAc(b1-2)Man(a1-6)][GlcNAc(b1-4)]Man(b1-4)GlcNAc(b1-4)[Fuc(a1-6)]GlcNAc
# How it was run: as §1
# [20] = biological target: Gal(b1-4)GlcNAc(b1-2)Man(a1-3)[GlcNAc(b1-2)Man(a1-6)]Man(b1-4)GlcNAc(b1-4)GlcNAc
# How it was run: as §1
# [21] = biological target: Gal(b1-4)GlcNAc(b1-2)Man(a1-3)[GlcNAc(b1-4)][Gal(b1-4)GlcNAc(b1-2)Man(a1-6)]Man(b1-4)GlcNAc(b1-4)GlcNAc
# How it was run: as §1
# [22] = biological target: Gal(b1-4)GlcNAc(b1-2)Man(a1-3)[Man(a1-6)]Man(b1-4)GlcNAc(b1-4)GlcNAc
# How it was run: as §1
# [23] = biological target: Gal(b1-4)GlcNAc(b1-2)Man(a1-6)Man(b1-4)GlcNAc(b1-4)GlcNAc
# How it was run: as §1
# [24] = biological target: Gal(b1-4)GlcNAc(b1-2)Man(a1-6)[GlcNAc(b1-2)Man(a1-3)]Man(b1-4)GlcNAc(b1-4)GlcNAc
# How it was run: as §1
# [25] = biological target: Gal(b1-4)GlcNAc(b1-2)Man(a1-6)[Man(a1-3)]Man(b1-4)GlcNAc(b1-4)GlcNAc
# How it was run: as §1
# [26] = biological target: Gal(b1-4)GlcNAc(b1-2)[Gal(b1-4)GlcNAc(b1-4)]Man(a1-3)[Gal(b1-4)GlcNAc(b1-2)Man(a1-6)]Man(b1-4)GlcNAc(b1-4)GlcNAc
# How it was run: as §1
# [27] = biological target: Gal(b1-4)GlcNAc(b1-2)[Gal(b1-4)GlcNAc(b1-4)]Man(a1-3)[Gal(b1-4)GlcNAc(b1-2)[Gal(b1-4)GlcNAc(b1-6)]Man(a1-6)]Man(b1-4)GlcNAc(b1-4)GlcNAc
# How it was run: as §1
# [28] = biological target: Gal(b1-4)GlcNAc(b1-2)[Gal(b1-4)GlcNAc(b1-4)]Man(a1-3)[GlcNAc(b1-4)][Gal(b1-4)GlcNAc(b1-2)Man(a1-6)]Man(b1-4)GlcNAc(b1-4)GlcNAc
# How it was run: as §1
# [29] = biological target: Gal(b1-4)GlcNAc(b1-2)[Gal(b1-4)GlcNAc(b1-4)]Man(a1-3)[GlcNAc(b1-4)][Gal(b1-4)GlcNAc(b1-2)[Gal(b1-4)GlcNAc(b1-6)]Man(a1-6)]Man(b1-4)GlcNAc(b1-4)GlcNAc
# How it was run: as §1
# [30] = biological target: Gal(b1-4)GlcNAc(b1-2)[Gal(b1-4)GlcNAc(b1-6)]Man(a1-6)[Gal(b1-4)GlcNAc(b1-2)Man(a1-3)]Man(b1-4)GlcNAc(b1-4)GlcNAc
# How it was run: as §1
# [31] = biological target: Gal(b1-4)GlcNAc(b1-2)[Gal(b1-4)GlcNAc(b1-6)]Man(a1-6)[Gal(b1-4)GlcNAc(b1-2)Man(a1-3)]Man(b1-4)GlcNAc(b1-4)[Fuc(a1-6)]GlcNAc
# How it was run: as §1
# [32] = biological target: Gal(b1-4)GlcNAc(b1-2)[Gal(b1-4)GlcNAc(b1-6)]Man(a1-6)[GlcNAc(b1-4)][Gal(b1-4)GlcNAc(b1-2)Man(a1-3)]Man(b1-4)GlcNAc(b1-4)GlcNAc
# How it was run: as §1
# [33] = biological target: Gal(b1-4)GlcNAc(b1-2)[Gal(b1-4)GlcNAc(b1-6)]Man(a1-6)[GlcNAc(b1-4)][Gal(b1-4)GlcNAc(b1-2)[Gal(b1-4)GlcNAc(b1-4)]Man(a1-3)]Man(b1-4)GlcNAc(b1-4)[Fuc(a1-6)]GlcNAc
# How it was run: as §1
# [34] = biological target: Gal(b1-4)GlcNAc(b1-3)Gal(b1-3)GalNAc
# How it was run: as §1
# [35] = biological target: Gal(b1-4)GlcNAc(b1-3)Gal(b1-3)GlcNAc
# How it was run: as §1
# [36] = biological target: Gal(b1-4)GlcNAc(b1-3)Gal(b1-4)Glc
# How it was run: as §1
# [37] = biological target: Gal(b1-4)GlcNAc(b1-3)Gal(b1-4)GlcNAc
# How it was run: as §1
# [38] = biological target: Gal(b1-4)GlcNAc(b1-3)Gal(b1-4)GlcNAc(b1-2)Man(a1-3)[Gal(b1-4)GlcNAc(b1-3)Gal(b1-4)GlcNAc(b1-2)Man(a1-6)]Man(b1-4)GlcNAc(b1-4)GlcNAc
# How it was run: as §1
# [39] = biological target: Gal(b1-4)GlcNAc(b1-3)Gal(b1-4)GlcNAc(b1-2)Man(a1-3)[Gal(b1-4)GlcNAc(b1-3)Gal(b1-4)GlcNAc(b1-2)Man(a1-6)]Man(b1-4)GlcNAc(b1-4)[Fuc(a1-6)]GlcNAc
# How it was run: as §1
binder,measurement,setting,value
GNL (Galanthus nivalis) (protein) MGHHHHHHHHYGTLENGHWLMVGMSIFSKDRTVELRMQDDGKLAIYYNDHCAWQSTAQQVNNAKGAVMQGDGNFCIYDKNGKATWHTNTAAPSGDSHTFVSVQDDGNLVLYKNNGATPIWSSKSNK,glycan array binding signal (z-score),[1],-0.285
same,glycan array binding signal (z-score),Gal(b1-3)GlcNAc6S,-0.24
same,glycan array binding signal (z-score),[2],-0.161
same,glycan array binding signal (z-score),[3],-0.181
same,glycan array binding signal (z-score),[4],-0.124
same,glycan array binding signal (z-score),[5],-0.232
same,glycan array binding signal (z-score),[6],-0.299
same,glycan array binding signal (z-score),[7],-0.237
same,glycan array binding signal (z-score),[8],-0.208
same,glycan array binding signal (z-score),[9],-0.271
same,glycan array binding signal (z-score),[10],-0.245
same,glycan array binding signal (z-score),[11],-0.261
same,glycan array binding signal (z-score),Gal(b1-4)Gal,-0.149
same,glycan array binding signal (z-score),[12],-0.257
same,glycan array binding signal (z-score),[13],-0.215
same,glycan array binding signal (z-score),Gal(b1-4)Glc,-0.219
same,glycan array binding signal (z-score),Gal(b1-4)Glc6S,-0.152
same,glycan array binding signal (z-score),Gal(b1-4)GlcNAc,-0.238
same,glycan array binding signal (z-score),[14],-0.255
same,glycan array binding signal (z-score),Gal(b1-4)GlcNAc(b1-2)Man,-0.238
same,glycan array binding signal (z-score),[15],2.56
same,glycan array binding signal (z-score),[16],4.76
same,glycan array binding signal (z-score),[17],0.872
same,glycan array binding signal (z-score),[18],-0.213
same,glycan array binding signal (z-score),[19],-0.238
same,glycan array binding signal (z-score),[20],3.92
same,glycan array binding signal (z-score),[21],-0.271
same,glycan array binding signal (z-score),[22],10.9
same,glycan array binding signal (z-score),[23],-0.253
same,glycan array binding signal (z-score),[24],7.59
same,glycan array binding signal (z-score),[25],-0.201
same,glycan array binding signal (z-score),[26],-0.104
same,glycan array binding signal (z-score),[27],-0.192
same,glycan array binding signal (z-score),[28],-0.235
same,glycan array binding signal (z-score),[29],-0.148
same,glycan array binding signal (z-score),[30],-0.003
same,glycan array binding signal (z-score),[31],-0.193
same,glycan array binding signal (z-score),[32],-0.29
same,glycan array binding signal (z-score),[33],-0.194
same,glycan array binding signal (z-score),[34],-0.183
same,glycan array binding signal (z-score),[35],-0.261
same,glycan array binding signal (z-score),[36],-0.197
same,glycan array binding signal (z-score),[37],-0.201
same,glycan array binding signal (z-score),[38],0.418
same,glycan array binding signal (z-score),[39],1.33
